Test results as given in the supplement of paper PMC10441789.
This is one part of the list. Antibody binding of pooled human sera (four to six donors per pool; dilution not stated) to peptides of the Trypanosoma cruzi antigen TSSA on microarrays. Quantile-normalised fluorescence in arbitrary units, mean of duplicate arrays; higher = more binding. No active / inactive call. The uninfected pools are read here as the healthy donors of the same country. The strongest signals lie near the top of the scale (about 60,000).

The sequences below were run on pooled sera of chronic Chagas disease patients, Argentina (assay: antibody binding signal (normalised fluorescence) (arbitrary fluorescence units); higher = stronger serum antibody binding to peptide).
Procedure: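 Microarray of 15-residue peptides over residues 30-55 of Trypanosoma cruzi TSSAII, each with 1 to 10 substitutions at naturally variable positions, probed with one serum pool per country.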

Sequence | antibody binding signal
GTDNKPAAGGAPSPS | 2070
GTENKTATGGTPSQS | 26200
SGTDNKTATGETPSP | 810
EKKTAAGEAPSPPGA | 278
GKEKKAAAGGAPSPS | 1240
GTENKAAAGETPSPP | 38700
DKKAATGEAPSPPGA | 21300
SGKDKKTAAGGTPSQ | 494
TENKPAAGETPSPSG | 44200
PSGKDKKPAAGGTPS | 5490
TSSTPPSGTEKKTAA | 33100
KAATGEAPSQSGASS | 24000
SGKDNKTAAGETPSP | 1060
STPPSGTENKPATGG | 52100
TSSTPPSGTDNKPAA | 38800
TDNKAAAGEAPSQSG | 402
PSGKENKTATGETPS | 4250
TDNKAATGETPSPPG | 2970
STPPSGTEKKPATGG | 50500
SGTENKTATGGAPSQ | 30700

Sequence | antibody binding signal
PSGTEKKPATGGAPS | 22700
SGTDNKTAAGEAPSQ | 300
GTDNKAATGETPSQP | 4740
TEKKPAAGETPSQSG | 1710
GTDKKPATGGAPSQS | 1180
SGTDNKAATGGTPSQ | 818
PPSGKDNKPAAGGAP | 1040
DKKTATGETPSPPGA | 301
GTDNKPAAGEAPSQP | 10700
STPPSGKDNKTAAGG | 27400
KDNKTATGGAPSPSG | 490
TPPSGKENKTAAGEA | 22100
PSGTENKAAAGEAPS | 48900
SGKENKAAAGEAPSP | 4290
GTDKKAAAGETPSQP | 343
DNKPAAGGTPSPSGA | 206
TPPSGKDKKTATGGT | 5720
EKKAATGEAPSQSGA | 21500
ISTPPSGKEKKAAAG | 15800
TPPSGTEKKAAAGGT | 33400
